For the assay, the system named is Plasmodium falciparum. Description: Primary screen in NF54 nanoGlo assay, in single point, at 2uM, 72h; a lower Z score goes with more inhibition. To be noted: timepoint 72 hour. It counts as functional, Erythrocyte.

The source of these data is ChEMBL document CHEMBL4888484, “Replenishing the malaria drug discovery pipeline: Screening and hit evaluation of the MMV Hit Generation Library 1 (HGL1) against asexual blood stage Plasmodium falciparum ,using a nano luciferase reporter read-out” (2022).

Broadly, the % Inhibition is the drop in the measured response relative to a control, in per cent.

Where “and” joins values, the source holds several entries; their conditions need not be identical. Equal values may be shown once. Out of some 150,000 compounds screened, about 540 (0.36%) showed an effect of 50% or more. The list shows a part of the results.

As for `C[C@H]1CCCCN1C(=O)c1ccc(-c2nc(-c3ccc(F)cc3)no2)cc1`, the “% Inhibition” value was -16% and the Z score is recorded as 1.85. Take `Cc1ccc2c(c1)NC(=O)C[C@@H]1CCN(C(=O)c3c(F)cccc3F)C[C@@H]1CCO2`: the “% Inhibition” value is -5% and the Z score is given as 0.79. For the molecule `Clc1ccc(Cc2nc([C@H]3CCOC3)no2)c(Cl)c1`, the “% Inhibition” value is listed as 2% and the Z score is reported as -0.29. On the same counts, the results for `Cc1ccc(S(=O)(=O)N2CCN(c3cc(Oc4ccccc4F)ncn3)C[C@@H]2C)cc1` are -8% and 1.26. Regarding `NCc1nc(COc2ccc3ccccc3c2)no1`, the “% Inhibition” value (2 µM) was -10% and 5%. On to `COc1cccc(CN2CCN([C@H]3CCCC[C@@H]3O)CC2)c1OC`, for which the “% Inhibition” value is -9% and the Z score was 0.84.

`Cc1ccc(Cc2nc(CN3C(=O)NC(C)(C)C3=O)no2)cn1`: the “% Inhibition” value was -6% and the Z score is reported as 1.06. On the same counts, the results for `CCCOc1cc(C)ccc1CNC(=NC)NCc1nc(C)c(C)o1` are -5% and 0.53. Regarding `O=S(=O)(NCc1noc(C2CC2)n1)c1ccc(-c2ccn[nH]2)o1`, the “% Inhibition” value is recorded as 7% and the Z score was -1.43. Turning to `Cc1ccc(-c2noc(-c3ccc4c(c3)OCCO4)n2)cc1`, the “% Inhibition” value is given as 7% and the Z score was -0.97.

`CCCN(CC1CC1)C(=O)c1cnc2ccccn2c1=O`: the “% Inhibition” value is -2% and the Z score is 0.49. The like results for `Cc1cc(C)n([C@@H](CNS(=O)(=O)CCC(F)(F)F)c2cccs2)n1` were, in that order, 9% and -1.2. As to `CC[C@@H](C(=O)NCC1CCN(C(=O)c2c(O)cccc2O)CC1)n1cccn1`, the “% Inhibition” value is on record as -10% and the Z score is 1.99. On the same counts, the results for `COc1ccc([C@@H]2CCCN2Cc2cnc(C)o2)nc1` are 6% and -0.76. The like results for `CCS(=O)(=O)N(CC(=O)N(Cc1ccc(C)cc1)C1CCN(S(=O)(=O)Cc2ccccc2)CC1)CC(C)C` were, in that order, -10% and 1.55. On the same counts, the results for `Cc1[nH]ncc1C(=O)N(C)CC1(C)CCN(Cc2ccccc2)CC1` are -7% and 0.72. As for `CCn1cnnc1-c1cccc(NCc2csc(C(C)(C)C)n2)c1`, the “% Inhibition” value was 2% and the Z score is on record as -0.32. With `N#Cc1c(-c2ccccc2)nc(N2CCCCC2)c(C#N)c1N`, the “% Inhibition” value was -1% and the Z score is 0.22. On the same counts, the results for `CC1(C)C[C@H](NC(=O)c2ccc(-c3ccncc3)c(F)c2)CO1` are -16% and 1.91. On the same counts, the results for `O=C(CCN1CCO[C@H](c2ccco2)C1)c1ccccc1` are -4% and 0.5. The like results for `CCc1cccc(NC(=O)c2c(C)sc3ncnc(N4CCCC4)c23)c1` were, in that order, 0% and -0.01. For the molecule `CCc1noc(CNC(=O)c2c3c(nn2C)CCCC3)n1`, the “% Inhibition” value was -5% and the Z score came to 0.46.

For the molecule `COc1ccccc1-c1noc(CCCC(=O)Nc2ccc(-c3nc4cc(C)ccc4o3)cc2)n1`, the “% Inhibition” value is -27% and the Z score is 2.4. On the same counts, the results for `Cc1cc(N2C[C@H](NC(=O)C3CCOCC3)[C@@H](C3CC3)C2)cc(C)n1` are -8% and 1.34. The like results for `CS(=O)(=O)N(c1ccc(F)c(Cl)c1)S(C)(=O)=O` were, in that order, -11% and 1.51. With `C=CCC(=O)N1CCN(CCc2ccccc2)[C@@H]2CS(=O)(=O)C[C@@H]21`, the “% Inhibition” value is listed as 3% and the Z score is -0.54.

Consider `CC#CCn1ccnc1-c1cncc(Br)c1`, for which the “% Inhibition” value was -16% and the Z score was determined as 2.28.

In the case of `CCOc1cc(CC#N)ccc1OCC(F)(F)F`, the “% Inhibition” value is given as -3% and the Z score was 0.39. The like results for `Cc1cc(NC(=O)COc2ccccc2-c2nccs2)n(C)n1` were, in that order, -5% and 0.46.

Consider `Nc1nnnn1CC(=O)N[C@@H]1COCC[C@@H]1Oc1ccc(F)cc1`, for which the “% Inhibition” value is -16% and the Z score is 1.74. The like results for `COCCNC(=O)[C@@H](NC(=O)c1ccccc1F)C1CCN(C(=O)c2cccs2)CC1` were, in that order, -9% and 0.93. On the same counts, the results for `O=C(c1cccs1)N1CCN(c2ccc(-c3cccs3)nn2)CC1` are 7% and -1.34. Regarding `CCc1ccccc1S(=O)(=O)N1CC(CN2CCOCC2)C1`, the “% Inhibition” value is reported as 11% and the Z score is given as -2.04. The like results for `c1nc(N2CCO[C@@H](COCC3CC3)C2)c2[nH]cnc2n1` were, in that order, -4% and 0.65.

For the molecule `O=C(COc1ccc(Cl)c(Cl)c1)N1CCn2c1nc1ccccc12`, the “% Inhibition” value is -5% and the Z score was 0.74.

In the case of `O=C(c1ccccc1F)N1CCC[C@H](OCc2cc(F)ccc2F)C1`, the “% Inhibition” value was -10% and the Z score came out at 1.25.

As for `Cc1c(C#N)c(NC(=O)CN2CCOCC2)n(-c2ccccc2)c1C`, the “% Inhibition” value is listed as 7% and the Z score is -0.91. On the same counts, the results for `CCn1ncc(NC(=O)c2cc(-c3cnn(C)c3)nc3onc(C)c23)c1C` are 27% and -3.06. The like results for `CCc1ccc(NC(=O)N2CCc3cn(CC)c4cccc(c34)C2)cc1` were, in that order, -5% and 0.47. The like results for `CN1CCN(C(=O)N[C@H]2CC(=O)N(c3ccc4c(c3)OCCO4)C2)CC1` were, in that order, 13% and -1.66. For the molecule `CC(C)c1ccc(NC(=O)N2CCc3nc(N4CCN(C)CC4)nc(Oc4ccc(F)c(F)c4)c3C2)cc1`, the “% Inhibition” value was 22% and the Z score is given as -3.03. The like results for `Cc1nnc([C@H]2CN(C(=O)Cc3ccccc3)CC23CCN(C(=O)Cc2ccccc2)CC3)o1` were, in that order, 3% and -0.62. The like results for `Cc1cnc(CN2CCCCCC2CC(O)c2ccco2)cn1` (stereo unspecified) were, in that order, -7% and 1.25. The like results for `CC(C(=O)Nc1nc[nH]n1)c1ccc(CC2CCCC2=O)cc1` (stereo unspecified) were, in that order, 4% and -0.49.

In the case of `CCCc1nc2cc(CCC(=O)Nc3ccc(Br)cc3C)ccc2[nH]1`, the “% Inhibition” value is given as -9% and the Z score is given as 1.08. The like results for `O=C(Cn1nc(N2CCOCC2)c2ccccc2c1=O)Nc1ccc(C(F)(F)F)cc1` were, in that order, -11% and 1.62. The like results for `CC(CNC(=O)C1(Cl)CC2CCC1O2)N1CCOCC1` (stereo unspecified) were, in that order, 1% and -0.15. On the same counts, the results for `CC(C)(C)n1nccc1NC(=O)N1CCC(CN2CCNC2=O)CC1` are -8% and 0.91. Take `CC(=O)Nc1nc(C(=O)N(Cc2ccco2)C2CC2)cs1`: the “% Inhibition” value is -12% and the Z score worked out at 2.21. `C[C@H]1CCCN(c2cc(C(=O)NCCC3=CCCCC3)c3ccccc3n2)C1`: the “% Inhibition” value is -7% and the Z score was determined as 1.03.

Take `CCC=C(C)C(=O)NCc1cccnc1OCC`: the “% Inhibition” value is -13% and the Z score is given as 1.37. Turning to `CC(C)(C)OC(=O)N1CC(C(=O)Nc2ccc(OC(F)(F)F)cc2)C1`, the “% Inhibition” value is recorded as -5% and the Z score amounted to 0.61. Regarding `COc1ccc(C)cc1[C@@H](C)NC(=O)N1CCN2C(=O)NCC2C1` (stereo partly specified), the “% Inhibition” value is recorded as -11% and the Z score is on record as 1.52. `CC(C)c1cc(C(=O)N2C3CCC2CC(N(C)C(=O)c2ccccc2)C3)no1` (stereo unspecified): the “% Inhibition” value is 4% and the Z score is -0.6. As for `COCc1noc(-c2cc(C3CC3)nc3c2cnn3[C@@H](C)C2CC2)n1`, the “% Inhibition” value is given as -5% and the Z score was determined as 0.4. Take `Cc1nc2cc(C(=O)N(C[C@H]3CCCCO3)C(C)C)cnc2[nH]1`: the “% Inhibition” value is -5% and the Z score is recorded as 0.57. The like results for `COc1ccccc1C(=O)N(C)[C@@H](C)CS(C)(=O)=O` were, in that order, 0% and -0.04.

Take `Clc1ccccc1-c1ncnn1CN1CCOC2CCCC21` (stereo unspecified): the “% Inhibition” value was determined as 2% and the Z score is given as -0.41. The like results for `Cc1cccc(C)c1OCCOC(=O)c1c(C)nn(C)c1Cl` were, in that order, -6% and 1.08.

On to `Cc1cc(-c2ccnc(-n3ncc(C(=O)N(C)CC(C)C)c3C)n2)c(C)s1`, for which the “% Inhibition” value was -7% and the Z score was found to be 0.88.

`C[C@@H](CC(=O)O)N(C(N)=O)c1ccc(Nc2ccccc2)cc1`: the “% Inhibition” value came out at 33% and the Z score is -4.2.

For `c1cn(Cc2ccc3c(c2)CCCO3)c(C2CC2)n1`, the “% Inhibition” value is -3% and the Z score came to 0.37. On the same counts, the results for `c1ccc(Oc2ccc(-c3nc(N4CCCCCC4)c4ccccc4n3)cc2)cc1` are -9% and 1.14. As for `Cc1ccc(CNC(=O)c2ccc3nnnn3c2)o1`, the “% Inhibition” value is given as -5% and the Z score is on record as 0.92. For `CC(=O)c1cccc(S(=O)(=O)N2CCN(C(=O)CCc3nc4ccccc4s3)CC2)c1`, the “% Inhibition” value is -17% and the Z score is reported as 2.21.

With `CN(CCc1cnn(C)c1)Cc1ccc(-c2cc[nH]n2)s1`, the “% Inhibition” value is -3% and the Z score was found to be 0.5. The like results for `CC(C)N(C)Cc1nc(CN2C(=O)NC(C)(C)C2=O)no1` were, in that order, -2% and 0.23. As for `COc1cc(C2[C@@H]3C(C)NC(=O)N(C)[C@@H]3NC(=O)N2C)ccc1O` (stereo partly specified), the “% Inhibition” value is recorded as -5% and the Z score was determined as 0.68. On the same counts, the results for `CN(C)[C@H]1CCN(Cc2ccc(Cl)c(F)c2)C[C@H]1CCCO` are 12% and -1.58. On the same counts, the results for `CC(C)c1nsc(N2CCC3CCC(C2)N3C(C)C)n1` (stereo unspecified) are 4% and -0.49. Regarding `COCc1cn([C@@H]2CC[C@H]3CCOc4ccccc4C(=O)N4CCN(C5CCN(C(C)=O)CC5)C[C@H]4C(=O)NC[C@H]2O3)nn1`, the “% Inhibition” value is listed as -3% and the Z score is recorded as 0.61. On the same counts, the results for `COC[C@@H]1[C@H](C(=O)Nc2cc(C)ccc2OC)CCCN1Cc1ccccc1` are 0% and -0.02. Turning to `CCN1CCN(Cc2ccc(NC(=O)Nc3cn(CC(C)C)c(=O)c4ccccc34)cc2)CC1`, the “% Inhibition” value was -7% and the Z score was 1.19. The like results for `O=C(NCc1ccco1)c1nn(-c2ccc(F)cc2)c(=O)n(Cc2ccccc2)c1=O` were, in that order, -18% and 1.84. The like results for `COCCNC(=O)c1ccc(CN(c2nc(-c3ccc(C)cc3)cs2)c2ccccc2Cl)o1` were, in that order, 3% and -0.37.

As for `COc1cc(Cl)cc2c1OC=CC(C(=O)Nc1ncc(Cc3ccccc3)s1)=C2`, the “% Inhibition” value is on record as 37% and the Z score is -4.93. On the same counts, the results for `CCc1noc(C)c1C(=O)N[C@@H]1[C@H]2CCO[C@H]2[C@@H]1COC` are 2% and -0.26. On the same counts, the results for `Cc1ncc(CNC(=O)c2cc(C3CC3)n(C)n2)c(N)n1` are -12% and 2.21.

As to `Cc1ccc2[nH]c3c(=O)n(CC(=O)N4CCN(Cc5ccc6c(c5)OCO6)CC4)ncc3c2c1`, the “% Inhibition” value is -1% and the Z score is on record as 0.15. The like results for `CN(C(=O)c1ccccc1N1CCC(NC(=O)c2ccc(C(F)(F)F)cc2)CC1)C1CCCCC1` were, in that order, -8% and 1.3. On the same counts, the results for `COc1cccc(Cn2c(=O)[nH]c3cc(-c4nc(-c5ccc(OC)c(OC)c5)no4)ccc3c2=O)c1` are -15% and 2.43.
